From the supplement of paper PMC10338343
± gives the standard deviation. Whole data set: some 5,500 sequences, median “pre-steady-state target cleavage rate” near 0.1, cut for the highest 2% near 0.64. The entries are a selection whose mix differs from that of the whole data set.

Each sequence was assayed on MIWI (PIWIL1) piRISC loaded with piRNA #2 (30 nt) (assay: pre-steady-state target cleavage rate (min^-1); MIWI and MILI are mouse PIWI proteins and EfPiwi is from a freshwater sponge; tags in brackets are library labels; higher = faster piRNA-guided slicing of the target). Details: guide: piRNA #2 5'p-UUAGGUAACCCAGUAGAUCCAGAGGAAUUC; auxiliary factor: 500 nM mouse GTSF1.
Procedure: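 Cleave-'n-Seq: a library of target RNAs (target site embedded in constant flanks, ACAGCATTCCGCGTTAGTGATATCCG... 5' flank; DNA-blocked outside the site) at 0.1 nM was incubated with 1 nM active mouse MILI or MIWI piRISC (synthetic 5'-monophosphorylated piRNA guide) with or without 500 nM mouse GTSF1 at 33 °C for 1 min to 16 h. Uncleaved targets were sequenced and normalised to non-target controls, and the pooled three trials were fitted to a burst-and-steady-state model to give the pre-steady-state cleavage rate (min^-1; k3 is constrained to at most 1e-4). Sequence is the target site only; target names encode pairing extent (gX:gY) and contiguous / 1-mismatch / 2-mismatch / bulge geometry. Fits with R² ≤ 0 are excluded.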
In the case of GAAUUCCUCUGGUUCUUCUGGGUUACCUAA, the “pre-steady-state target cleavage rate” value is reported as 0.499 ± 0.065.
With GAAUUCCUCUGGAUUUACUGGGUUACCUAA the “pre-steady-state target cleavage rate” value was 0.425 ± 0.073.
With CUAUUCCUCUGGAUCUACUGGGUAACCUAA the “pre-steady-state target cleavage rate” value was 0.231 ± 0.042.
With GAAUUCCUCUAGAUCUACUGGGUUACCUAA the “pre-steady-state target cleavage rate” value was 0.731 ± 0.05.
With CUUAAGGUCUGGAUCUACAGGGUUAGCUAA the “pre-steady-state target cleavage rate” value was 0.0899 ± 0.021.
In the case of GAAUUCGUCAGGAUCUACUGGGUUACCUAA, the “pre-steady-state target cleavage rate” value is reported as 0.374 ± 0.057.
With CUUUUCCUCUGGAUCUACUGGGUUCACCUAA the “pre-steady-state target cleavage rate” value was 0.345 ± 0.042.
For CUUAUCCUCUGGAUCUACUGGUUUACCUAA, the “pre-steady-state target cleavage rate” value was 0.269 ± 0.028.
With CUAUACCUCUGGAUCUACUGGGUAACCUAA the “pre-steady-state target cleavage rate” value was 0.304 ± 0.06.
For CUUAUGCUGUGGAUCUACUGGGUUACCUAA, the “pre-steady-state target cleavage rate” value was 0.236 ± 0.041.
With CUUAUCCUCUGGAUCUACUGGCUAACCUAA the “pre-steady-state target cleavage rate” value was 0.0104 ± 0.0045.
CUUAAGCUCUGGAUCUACUGGGUUAGGAAA was tested, and the “pre-steady-state target cleavage rate” value was 0.0375 ± 0.013.
For CUUAAGCUCUGGAACUACUGGGUUACGUAA, the “pre-steady-state target cleavage rate” value was 0.357 ± 0.033.
In the case of CUUAAGCUCUGGAUCUAGUCGGUUACCUAA, the “pre-steady-state target cleavage rate” value is reported as 0.00488 ± 0.0048.
For CUUUACCUCUGGAUCUAGUGGGUUACCUAA, the “pre-steady-state target cleavage rate” value was 0.0935 ± 0.0082.
For CUUAAGCUCUGGAUCUACUCCGUUACCUAA, the “pre-steady-state target cleavage rate” value was 0.0175 ± 0.0067.
GAAUUGCUCUGGUUCUACUGGGUUACCUAA was tested, and the “pre-steady-state target cleavage rate” value was 0.158 ± 0.041.
GAAUUCCUGUGGUUCUACUGGGUUACCUAA was tested, and the “pre-steady-state target cleavage rate” value was 0.313 ± 0.032.
In the case of “CUUAAGGACUGGAUCUACUGGGUUACCUAU [g2:g22:cont:t1U]”, the “pre-steady-state target cleavage rate” value is reported as 0.131 ± 0.046.
For CUUAACCUCUGGAUCUAGUGGGUUACCUUA, the “pre-steady-state target cleavage rate” value was 0.0713 ± 0.0073.
With CUAUUCCUCUGGAUCUAGUGGGUUACCAAA the “pre-steady-state target cleavage rate” value was 0.112 ± 0.02.
With CUUAUACUCUGGAUCUACUGGGUUACCUAA the “pre-steady-state target cleavage rate” value was 0.116 ± 0.023.
In the case of GAAUUCCUCUAGGAUCUACUGGGUUACCUAA, the “pre-steady-state target cleavage rate” value is reported as 0.348 ± 0.074.
In the case of CUUAUCCUCUCCUUCUACUGGGUUACCUAA, the “pre-steady-state target cleavage rate” value is reported as 0.419 ± 0.034.
In the case of GAAUUCCUCUGGAUCUACUGGGUUAUCCUAA, the “pre-steady-state target cleavage rate” value is reported as 0.263 ± 0.042.
CUUAUCCUCUGGAUCUAAUGGGUUACCUAA was tested, and the “pre-steady-state target cleavage rate” value was 0.172 ± 0.022.
For CUUAAGGAGUGGAUCUACUGGGUUACCUUA, the “pre-steady-state target cleavage rate” value was 0.0783 ± 0.016.
CUAUUGGUCUGGAUCUACUGGGUUACCUAA was tested, and the “pre-steady-state target cleavage rate” value was 0.355 ± 0.041.
With CUUAUCCUCGGGAUCUACUGGGUUACCUAA the “pre-steady-state target cleavage rate” value was 0.334 ± 0.084.
CUAUUCCUCAGGUUCUACUGGGUUACCUAA was tested, and the “pre-steady-state target cleavage rate” value was 0.584 ± 0.05.
With CUUAAGGAGUGGAUCUACUGGGUUACCCAA the “pre-steady-state target cleavage rate” value was 0.0404 ± 0.017.
For CUAUUCCACUGGAUCUACUGGGUUACCUAA, the “pre-steady-state target cleavage rate” value was 0.588 ± 0.061.
CUUAUCCUCUGGAUCUAGUGGGUUACGUAA was tested, and the “pre-steady-state target cleavage rate” value was 0.212 ± 0.026.
For CUUAUCCACUGGAUCUACUGGGUUACCAAA, the “pre-steady-state target cleavage rate” value was 0.348 ± 0.042.
With GAAUUCCUCUGGAUCUACUGGCUUACGUAA the “pre-steady-state target cleavage rate” value was 0.0974 ± 0.024.
For CUUUUCCUCUGGAUCAACAGGGUUACCUAA, the “pre-steady-state target cleavage rate” value was 0.191 ± 0.02.
With CUUUUCCUCUGCAUCUACUCGGUUACCUAA the “pre-steady-state target cleavage rate” value was 0.0886 ± 0.011.
CUUAAGGAGACCUUCUAGUGCGUUACCUAA was tested, and the “pre-steady-state target cleavage rate” value was 0.00596 ± 0.0031.
For CUUAAGGAGAGGAUCUACUGGGUUACACUAA, the “pre-steady-state target cleavage rate” value was 0.00526 ± 0.004.
In the case of GGAUUCCUCUGGAUCUACUGGGUUACCUAA, the “pre-steady-state target cleavage rate” value is reported as 0.0367 ± 0.018.
In the case of CUUAAGGUCUGGAUCUACUGGGUUACGAUA, the “pre-steady-state target cleavage rate” value is reported as 0.0701 ± 0.017.
For GAUUUCCUCUGGAUCUACUGGGUUACCAAA, the “pre-steady-state target cleavage rate” value was 0.264 ± 0.051.
For CUUAUCCUCAGGAUCUACUGGGAUACCUAA, the “pre-steady-state target cleavage rate” value was 0.403 ± 0.056.
For GAAUUCCUCUGGAUAUACUGGGUUACCUAA, the “pre-steady-state target cleavage rate” value was 0.551 ± 0.038.
CUUUUCCUCUGGAUCUAGUGGGUUACCUUA was tested, and the “pre-steady-state target cleavage rate” value was 0.137 ± 0.023.
CUUAAGGACUGGAUCUACUGGGUCACCUAA was tested, and the “pre-steady-state target cleavage rate” value was 0.0525 ± 0.028.
For CUUAUCCUCAGGAUCUACUCGGUUACCUAA, the “pre-steady-state target cleavage rate” value was 0.0707 ± 0.016.
In the case of CUUAACCUCUGGAUCUACUCGGUUACCUAA, the “pre-steady-state target cleavage rate” value is reported as 0.0715 ± 0.014.
With CUUAUCCUCUGGAUCAACUCGGUUACCUAA the “pre-steady-state target cleavage rate” value was 0.0898 ± 0.018.
In the case of CAAUUCCUCUGGAUCUAGUGGGUUACGUAA, the “pre-steady-state target cleavage rate” value is reported as 0.232 ± 0.033.
In the case of CUUAAGGAGAGGAUCUACUCCCUUACCUAA, the “pre-steady-state target cleavage rate” value is reported as less than 0.0001.
CUUUAUCCUCUGGAUCUACUGGGUUACCUAA was tested, and the “pre-steady-state target cleavage rate” value was 0.347 ± 0.064.
In the case of CUUUACGUCUGGAUCUACUGGGUUACCUAA, the “pre-steady-state target cleavage rate” value is reported as 0.326 ± 0.029.
In the case of GUAUUGCUCUGGAUCUACUGGGUUACCUAA, the “pre-steady-state target cleavage rate” value is reported as 0.0197 ± 0.013.
CUAAUCCUCUGGAUCUACUGGCUUACCUAA was tested, and the “pre-steady-state target cleavage rate” value was 0.0988 ± 0.012.
With CAAUUCCCUGGAUCUACUGGGUUACCUAA the “pre-steady-state target cleavage rate” value was 0.492 ± 0.047.
In the case of CUUAAGGAGAGGAACUACUGGGUUACGUAA, the “pre-steady-state target cleavage rate” value is reported as 0.00791 ± 0.0056.
With CAAUUCCUCUGGAUCUACUGGGUUACCUGA the “pre-steady-state target cleavage rate” value was 0.328 ± 0.086.
CUUAACCUCUGGAUCUACUGGCGUUACCUAA was tested, and the “pre-steady-state target cleavage rate” value was 0.0045 ± 0.0034.
For CUUAAGCUCUGCAUCUACUGGCUUACCUAA, the “pre-steady-state target cleavage rate” value was 0.0714 ± 0.013.
With GAAUUCCUCUGGAUCUACUGGGUAUACCUAA the “pre-steady-state target cleavage rate” value was 0.322 ± 0.042.
For CUAUUCGUCUGGAUCUACUGGGUUAGCUAA, the “pre-steady-state target cleavage rate” value was 0.262 ± 0.06.
For CUUAAGGUCUGGAUCUACACCGUUACCUAA, the “pre-steady-state target cleavage rate” value was 0.0154 ± 0.0019.
With CUUAAGGUCUGGAUCAACUGGGUUACCUAA the “pre-steady-state target cleavage rate” value was 0.243 ± 0.034.
CUUAACCUCAGGAUCUACUGGGUUAGCUAA was tested, and the “pre-steady-state target cleavage rate” value was 0.0896 ± 0.024.
In the case of GAUUUCCUCUGGAUCUACUGCGUUACCUAA, the “pre-steady-state target cleavage rate” value is reported as 0.363 ± 0.06.
For CUUAAGGUCUGGAGCUACUGGGUUACCUAA, the “pre-steady-state target cleavage rate” value was 0.201 ± 0.042.
In the case of CUUAAGCUCUGGAACUUCUGGGUUACCUAA, the “pre-steady-state target cleavage rate” value is reported as 0.133 ± 0.019.
For CUUAAGGACUGGAUCCUACUGGGUUACCUAA, the “pre-steady-state target cleavage rate” value was 0.0141 ± 0.0092.
CUUAAGGACAGGAUCUACUGGGUUACCUUA was tested, and the “pre-steady-state target cleavage rate” value was 0.0461 ± 0.019.
In the case of CAAUUCCUCUGGAUCUUCAGGGUUACCUAA, the “pre-steady-state target cleavage rate” value is reported as 0.162 ± 0.021.
For CUUAAGGAGUGGAUCUGCUGGGUUACCUAA, the “pre-steady-state target cleavage rate” value was 0.0533 ± 0.017.
With CUUAUCCUGUGGAUCUACUGGGUUACCAAA the “pre-steady-state target cleavage rate” value was 0.166 ± 0.038.
For GAAAUCCUCUGGAUGUACUGGGUUACCUAA, the “pre-steady-state target cleavage rate” value was 0.28 ± 0.046.
For CUUAAGGAGACCAUCUACUGGGUUACCGUAA, the “pre-steady-state target cleavage rate” value was 0.00398 ± 0.0035.
CAAUUCCUCUGGAUCUACAGGCUUACCUAA was tested, and the “pre-steady-state target cleavage rate” value was 0.022 ± 0.0086.
In the case of GAAUUCCUCUGGAUCAACUCGGUUACCUAA, the “pre-steady-state target cleavage rate” value is reported as 0.0852 ± 0.017.
GGAAUUCCUCUGGAUCUACUGGGUUACCUAA was tested, and the “pre-steady-state target cleavage rate” value was 0.119 ± 0.034.
In the case of CUUUUCGUGUGGAUCUACUGGGUUACCUAA, the “pre-steady-state target cleavage rate” value is reported as 0.34 ± 0.026.
In the case of CUUAACCUCAGGAUCUACUCGGUUACCUAA, the “pre-steady-state target cleavage rate” value is reported as 0.0602 ± 0.016.
With CUUAACCUCUGCAUCUACAGGGUUACCUAA the “pre-steady-state target cleavage rate” value was 0.186 ± 0.017.
With CUUAACCUCUGGAUCUACUGGGUUUGCUAA the “pre-steady-state target cleavage rate” value was 0.148 ± 0.02.
GAAUUCCUCUGGAUCUACACGGUUACCUAA was tested, and the “pre-steady-state target cleavage rate” value was 0.16 ± 0.024.
CUUAAGCUCUGGAUCCUACUGGGUUACCUAA was tested, and the “pre-steady-state target cleavage rate” value was 0.0287 ± 0.0091.
CAAUUCCACUGGUUCUACUGGGUUACCUAA was tested, and the “pre-steady-state target cleavage rate” value was 0.593 ± 0.041.
With CUUAAGGACUGGAUCUACUGGGUUACUUAA the “pre-steady-state target cleavage rate” value was 0.337 ± 0.061.
In the case of CUUAAGGUCUGGGAUCUACUGGGUUACCUAA, the “pre-steady-state target cleavage rate” value is reported as 0.132 ± 0.022.
For GAAUUGCUCUGGAUCUACAGGGUUACCUAA, the “pre-steady-state target cleavage rate” value was 0.0505 ± 0.016.
For CUUAACCUCAGGAUCUACUGGGUUACCUAA, the “pre-steady-state target cleavage rate” value was 0.482 ± 0.056.
In the case of CUAUUCGUCUGGAUCUACUCGGUUACCUAA, the “pre-steady-state target cleavage rate” value is reported as 0.044 ± 0.023.
With CUUAAGGACUGGAUCUACUGGGUUACGUUA the “pre-steady-state target cleavage rate” value was 0.0681 ± 0.039.
For CUUAUCCUCUGGAUGCUACUGGGUUACCUAA, the “pre-steady-state target cleavage rate” value was 0.277 ± 0.034.
